Reference: patent US9963455B2, “Pyrazolo[1,5-a]pyrimidines as antiviral compounds” (Curovir AB, priority 2014, dated 2018)

Experiments:
[1] = rat, single dose, doses up to 2000 mg/kg
[2] = 28 days toxicity study, rat; conditions: Sprague Dawley rats
Protocol: In light of above findings from the present study, the No Observed Adverse Effect Level (NOAEL) of Ex 9 could be determined as 200 mg/kg body weight when administered orally to Sprague Dawley rats for 28 consecutive days under the tested dose levels and experimental conditions employed.

COc1ccc(-c2c(C)nn3c(NCc4ccc(F)cc4)cc(C)nc23)cc1OC [Ex. 9, 3-(3,4-dimethoxyphenyl)-N-[(4-fluorophenyl)methyl]-2,5-dimethyl-pyrazolo[1,5-a]pyrimidin-7-amine]
effects on clinical signs, mortality, body weight, body weight gain, feed consumption, absolute and relative organ weights [1]: no adverse effects
macroscopic examination [1]: no treatment related gross pathological findings were observed
effects on clinical signs, body weight, feed consumption, hematology, clinical chemistry, urinalysis, neurological examination, gross necropsy and histopathological evaluation ([2]; 100 and 200 mg/kg body weight for 28 days, both sexes): no adverse effects
Serum biochemistry, liver findings ([2]; 28 days, at 200 mg/kg body weight in both the sexes): increase in cholesterol, which was correlated with findings of macrovesicular fatty changes in liver
